The chains are these.
T1: UNK ZnF1-3 (human, UniProt Q9C0B0 31-174)
T1 sequence: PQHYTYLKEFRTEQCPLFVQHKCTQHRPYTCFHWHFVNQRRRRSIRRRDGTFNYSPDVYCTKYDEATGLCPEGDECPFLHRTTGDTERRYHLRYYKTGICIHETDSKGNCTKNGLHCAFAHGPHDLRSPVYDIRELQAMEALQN

B1: 118656797_118656917_409_3pUTR_ENSG00000110367_ENST00000264018|human|control|control (ssRNA)
RNA: GGGAGUUCUACAGUCCGACGAUCUGCCAUUAUUGAUUGUGUUGGUGUUUUUCAGCUGGUUCAUCUGUUGCUGUGUCUGUGUGCCCCCUCCUCCAGGGCCACCAGUGGGUUUCACAGGGCCUCUCAGCUGACCAUUUUGACUGGCAACAGAGGAUUGAGCAUCA
B2: chr3:8560387:8560388:+_ENSMUSG00000027500_ENSMUST00000029002|perfect_dup|motif|central (ssRNA)
RNA: GGGAGUUCUACAGUCCGACGAUCCAUACAUUCCCCAUCCUGAUAUCGCAUGAUCCAUUAUAAUAUAGGCAGGGGGAUUUACGGUUGGUGGGGCGUGCCAGACCCUCCCUUGCUUCAGCCAGACAGUUCAACCUGGAGUUCCUUCAACAGAGGAUUGAGCAUCA
B3: chr10:104572449:104572450:+_ENSG00000166272_ENST00000448841|hu_hu|FALSE|FALSE (ssRNA)
RNA: GGGAGUUCUACAGUCCGACGAUCGGGAUCGAUGCCCGGGGGACUGCCACCUGCAGGGCCACACUGUGGAGGCAGCAGCUGCUGCUGCUGUAGCUGGAAGGCACUGUAUGGUGGGGGAGGAGUUGGAGGUCGGUUCACCACUUCCAACAGAGGAUUGAGCAUCA
B4: chr3:9412954:9412955:+_ENSG00000134077_ENST00000452837|hu_mus|hu_hu_hu_mus_False|28_68 (ssRNA)
RNA: GGGAGUUCUACAGUCCGACGAUCGGUUGAUAUCUCUUCUUUGAUGGCUGGAUUUUCAUAAUAGUCCAAGAUAUGAGAAUCUGAAGUGCUGCUGGCAUGCUUUUUCUUAACAUUUCUCUCAUCUGCUUUGUCUCCUUGUCCACACAACAGAGGAUUGAGCAUCA
B5: chr7:17002144:17002145:+_ENSMUSG00000059273_ENSMUST00000098789|mus_hu|FALSE|FALSE (ssRNA)
RNA: GGGAGUUCUACAGUCCGACGAUCCUCAGGCCCUCCGGAGGUAUCCUGGGUCUCCUCUGCCCCAUCAUCUUCCAAUUCACCUUCUUCCAACUCUCCAUCUUCCCUGUCGUCAGGGAGCGGGAGGCGGUGGUGGAGGAGGUGCGGCAACAGAGGAUUGAGCAUCA
B6: chr1:66480114:66480115:+_ENSMUSG00000015222_ENSMUST00000024639|mus_hu|mus_mus_mus_hu_True|28_58 (ssRNA)
RNA: GGGAGUUCUACAGUCCGACGAUCUGGCCUGUGGCGGAUGUUCUUCAGAGAGCCACAUUUGGAUGUCACAUGGCUUAAGUCUAUCUUCUUGGUAACAAUUUGUACCUGACCCCCCUUAGGCUGGUAUUUGAUGUUGUCUGUUGACAACAGAGGAUUGAGCAUCA
B7: chr7:106631192:106631193:-_ENSMUSG00000030744_ENSMUST00000032998|mus_mus|FALSE|FALSE (ssRNA)
RNA: GGGAGUUCUACAGUCCGACGAUCCUUCAGCCAGCUCCCGAGUGAGAAAUUCAUUCAGCUCAGCUUUGAAGAUGCCAUCAGCUACAAACUUCCUCUUCUUGGAAAUCUGCACCGCCAUCUUGCAGCCGCGCGCCGCUGAAAGGACAACAGAGGAUUGAGCAUCA
B8: chr17:64801638:64801639:+_ENSG00000154229_ENST00000413366|hu_mus|hu_hu_hu_mus_False|58_58 (ssRNA)
RNA: GGGAGUUCUACAGUCCGACGAUCUAUAUAUAUAUAUACAUAUGUACACAUAUAUAGUAAAACCCUAGUUAAACGUGUAAACUAGCCAUUCAUUUUUAAAAUUACAUCUACAUUAAAAAAUUAAUAUAUCUGAUAGAGUGCCAGCAACAGAGGAUUGAGCAUCA
B9: 3701737_3703502_1075_CDS_ENSG00000130764_ENST00000378251|human|control|control (ssRNA)
RNA: GGGAGUUCUACAGUCCGACGAUCCUUCUCACAGAGAUCUUCGUGGAGCUUGGUCUGCGAGGUGAGGAAGCGCUUGAGUGCAUUCCCUGGCUGCAGGUCCAUGCCUCGCACCACGGCCCCCACAAUGUAGGGCCGCACAUCCCGCAACAGAGGAUUGAGCAUCA
B10: chr17:38556828:38556829:-_ENSG00000131747_ENST00000423485|hu_hu|motif|central (ssRNA)
RNA: GGGAGUUCUACAGUCCGACGAUCGGUCCAUGUUCUGACGGGAAGCUCUGAGAUUUCAAUGGUUGUAGAAUUAAGAAUAGCGGCUUCACCACUAAUCACAUAUUGAUUUGGAGCCAGUUCUUCAAUAGUACCCUUGAAGUUCUUCAACAGAGGAUUGAGCAUCA
B11: chr3:176767854:176767855:-_ENSG00000177565_ENST00000430069|hu_hu|hu_hu_hu_mus_False|48_98 (ssRNA)
RNA: GGGAGUUCUACAGUCCGACGAUCGACAUCCUUGUUACUUGGAACAUCCUGCCCUCCUUCCCGUAUGCAGUGUCUAAGCACGAGCUGUGUAGAGCCACUCGUGCUGUUCUCACUGAGGUUCCAGAUUCUUGCCGUGGAGUCUCCCAACAGAGGAUUGAGCAUCA
B12: 101158442_101158562_1428_3pUTR_ENSMUSG00000056537_ENSMUST00000070705|mouse|control|control (ssRNA)
RNA: GGGAGUUCUACAGUCCGACGAUCGUUUGAAUUGCAACAGAUGUAGUUUCACUUAAUCCAGUAUUUAAGAUUCUGCGAAUAGGAAUCCUGAUAGUACUCACAUAGGUUCUCACACCUGCACGUUCAGAACGGGAAAAGGUACGCCAACAGAGGAUUGAGCAUCA
B13: chr2:47389482:47389483:-_ENSG00000143933_ENST00000272298|hu_hu|motif|central (ssRNA)
RNA: GGGAGUUCUACAGUCCGACGAUCUUCUGCAGCACUAAUAUAGCCAUUGCCAUCCUUAUCAAACACACGGAAUGCUUCUCGGAUUUCUUCUUCACUGUCUGUGUCUUUCAUUUUUCUUGCCAUCAUUGUCAGAAAUUCAGGGAACAACAGAGGAUUGAGCAUCA
B14: chr6:38652254:38652255:-_ENSG00000124767_ENST00000373365|hu_hu|hu_hu_hu_mus_False|68_108 (ssRNA)
RNA: GGGAGUUCUACAGUCCGACGAUCCGAAAACUUCAUAGCAGGGAAGUCAAGCUUCUGCAGGAGGGUCAUUCCAAGAACCCUCGUAUAAAAAUCCAGGGACUUCUUAGGAUCCUUAAUUCUUAGCAUCGUUUGCUGCAGUAGAAACAACAGAGGAUUGAGCAUCA

The list shows a part of the results.

The test concerns the target T1, UNK ZnF1-3. The test can be described thus: nsRBNS (natural sequence RNA bind-n-seq); RBNS binding buffer (assumed for nsRBNS): 25 mM Tris pH 7.5, 150 mM KCl, 3 mM MgCl2, 0.01% Triton X-100, 500 ug/ml BSA, 20 U/ml SUPERase-In, 4 C; UNK is unkempt and MSI1 is Musashi-1; names of the RNAs are library labels; protein concentration not given here; high values mean tight binding.
Take B1: the binding signal turned out to be 0.693 enrichment R.

For the molecule B2, the binding signal was 1.28 enrichment R.

B3 registered a binding signal of 0.934 enrichment R.

B4 came in with a binding signal of 0.538 enrichment R.

B5 registered a binding signal of 0.698 enrichment R.

As to B6, the binding signal stood at 0.615 enrichment R.

Take B7: the binding signal was 0.871 enrichment R.

In turn, B8 came in with a binding signal of 1.44 enrichment R.

In turn, B9 came in with a binding signal of 0.47 enrichment R.

B10 registered a binding signal of 0.794 enrichment R.

The molecule B11 had a binding signal of 0.608 enrichment R.

For the molecule B12, the binding signal was determined as 0.934 enrichment R.

Molecule B13 returned a binding signal of 0.652 enrichment R.

In the case of B14, the binding signal came to 0.583 enrichment R.

The values are drawn from article PMC12136788.
